In patent CN113150156A:

Experiments:
[1] = molecular target: T1, 人源TIGIT on TIGIT效应细胞 (Jurkat T cells) (human) (UniProt Q495A1); assay: cell-based or functional assay
T1 sequence (looked up): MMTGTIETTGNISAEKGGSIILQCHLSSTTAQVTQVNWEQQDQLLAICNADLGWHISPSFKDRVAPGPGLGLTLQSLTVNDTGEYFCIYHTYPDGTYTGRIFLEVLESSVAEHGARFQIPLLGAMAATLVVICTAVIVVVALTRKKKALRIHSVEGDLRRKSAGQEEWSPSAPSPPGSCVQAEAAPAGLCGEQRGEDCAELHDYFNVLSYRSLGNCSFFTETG

[2] = molecular target: T2, 生物素标记的TIGIT (Acrobiosystems, TIT-H82E5) (UniProt Q495A1); assay: competition ELISA, blocking of biotinylated TIGIT binding to coated CD112
T2 sequence (biotin-labelled (生物素标记), site not stated, looked up): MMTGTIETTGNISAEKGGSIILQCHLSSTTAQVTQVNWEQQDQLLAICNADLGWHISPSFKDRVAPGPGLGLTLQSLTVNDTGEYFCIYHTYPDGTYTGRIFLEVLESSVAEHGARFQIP

[3] = molecular target: T2, 生物素标记的TIGIT (Acrobiosystems, TIT-H82E5); assay: competition ELISA, blocking of biotinylated TIGIT binding to coated CD155
[4] = molecular target: T3, 人TIGIT蛋白 (Acrobiosystems, TIT-H52H3) (human) (UniProt Q495A1); assay: ELISA, TIGIT protein coated at 0.5 μg/ml, HRP goat anti-human IgG detection
T3 sequence (looked up): T2 sequence (biotin-labelled (生物素标记), site not stated, looked up)

B1: c7D3 (antibody, part only; not given: light chain, IgG1, part only)
heavy: EVQLQQSGPELVKPGASVKMSCKASGYTFTSYVMHWVKQKPGQGLEWIGYINPYNDGTKYNEKFKGKATLTSDKSSSTAYMELSSLTSEDSAVYYCARRGNGPLRVFAYWGQGTTVTVSS[letters of human IgG1 constant region omitted]
**Q.** What does the source list for B1?
**A.** 化学发光信号值 (TIGIT/CD155报告基因实验, IL2启动子调控的荧光素酶) [1]: 74.5 nM; IC50 [2]: 18.1 nM; IC50 [3]: 3.52 nM; EC50 [4]: 0.105 nM
